No constants are given. Whether binding was seen depends on the method and setting. Some results given as binding are weak or reduced against the parent protein; the word gives no strength. For part of these data: Tags and fused reporters may be left off the sequences shown. Each block holds one binder with its values, some of them ahead of it.
Tests used:
[1] = target: T1, SYCE2 core (amino-acids 57-165) (human, UniProt Q6PIF2 57-165); experiment: SEC-SAXS; co-purified complexes at >5 mg/ml on Superdex 200 Increase 10/300 GL in 20 mM Tris pH 8.0, 150 mM KCl; both purified
T1 construct: SYCE2, human, core, residues 57-165; also called SYCE2 structural core; source: E. coli BL21 (DE3), co-expressed with TEX12, purified (Ni-NTA, amylose, ion exchange, SEC); not shown: MBP, N-terminal, cleaved
T1 sequence (looked up): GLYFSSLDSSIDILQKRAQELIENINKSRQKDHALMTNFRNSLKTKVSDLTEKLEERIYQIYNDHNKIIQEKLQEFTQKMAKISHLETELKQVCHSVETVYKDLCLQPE

[2] = target: T2, SYCE2-TEX12 core LFIL (TEX12 L110E F114E I117E L121E) 2:2 complex (human) (UniProt Q6PIF2+Q9BXU0); experiment: SEC-MALS; co-purified complexes at >1 mg/ml on Superdex 200 Increase 10/300 GL in 20 mM Tris pH 8.0, 150 mM KCl, 2 mM DTT; in Fig. 1 core at 200 uM and full-length at 100 uM (4 mg/ml); both purified
[3] = target: T2, SYCE2-TEX12 core LFIL (TEX12 L110E F114E I117E L121E) 2:2 complex (human); experiment: negative-stain electron microscopy; co-purified complexes at 0.005-3 mg/ml on carbon-coated grids, 2% uranyl acetate; fibres detected and measured by image analysis; both purified
[4] = target: T2, SYCE2-TEX12 core LFIL (TEX12 L110E F114E I117E L121E) 2:2 complex (human); experiment: SEC-SAXS; co-purified complexes at >5 mg/ml on Superdex 200 Increase 10/300 GL in 20 mM Tris pH 8.0, 150 mM KCl; both purified
[5] = target: SYCE2-TEX12 core V149E V153E V156E L160E 2:2 complex (human) (UniProt Q6PIF2+Q9BXU0); experiment: SEC-MALS; co-purified complexes at >1 mg/ml on Superdex 200 Increase 10/300 GL in 20 mM Tris pH 8.0, 150 mM KCl, 2 mM DTT; in Fig. 1 core at 200 uM and full-length at 100 uM (4 mg/ml); both purified
[6] = target: SYCE2-TEX12 core ΔS2C MBP-fusion 2:2 complex (human) (UniProt Q6PIF2+Q9BXU0); experiment: as above
[7] = target: SYCE2-TEX12 core ΔS2C 2:2 complex (human) (UniProt Q6PIF2+Q9BXU0); experiment: as above
[8] = target: T3, SYCE2-TEX12 core wild-type, 2:2 building block (human) (UniProt Q6PIF2+Q9BXU0); experiment: negative-stain electron microscopy; co-purified complexes at 0.005-3 mg/ml on carbon-coated grids, 2% uranyl acetate; fibres detected and measured by image analysis; both purified
[9] = target: T3, SYCE2-TEX12 core wild-type, 2:2 building block (human); experiment: SEC-SAXS; co-purified complexes at >5 mg/ml on Superdex 200 Increase 10/300 GL in 20 mM Tris pH 8.0, 150 mM KCl; both purified

B2: SYCE2-TEX12 core LFIL (TEX12 L110E F114E I117E L121E) 2:2 complex (complex, UniProt Q6PIF2 57-165; Q9BXU0 49-123)
chain 1: GLYFSSLDSSIDILQKRAQELIENINKSRQKDHALMTNFRNSLKTKVSDLTEKLEERIYQIYNDHNKIIQEKLQEFTQKMAKISHLETELKQVCHSVETVYKDLCLQPE
chain 2: KDEALEKDLNDVSKEINLMLSTYAKLLSERAAVDASYIDEIDELFKEANAIENFLIQKREFERQRETVEANTEHR
binding [2]: no binding (tested: >1 mg/ml) | binding [3]: no binding (tested: 0.005-3 mg/ml) | binding [4]: no binding (tested: >5 mg/ml)

B3: SYCE2-TEX12 core V149E V153E V156E L160E 2:2 complex (complex, UniProt Q6PIF2 57-165; Q9BXU0 49-123)
chain 1: GLYFSSLDSSIDILQKRAQELIENINKSRQKDHALMTNFRNSLKTKVSDLTEKLEERIYQIYNDHNKIIQEKLQEFTQKMAKISHLETELKQECHSEETEYKDECLQPE
chain 2: KDEALEKDLNDVSKEINLMLSTYAKLLSERAAVDASYIDEIDELFKEANAIENFLIQKREFLRQRFTVIANTLHR
binding [5]: no binding (tested: >1 mg/ml)

B6: SYCE2-TEX12 core wild-type, 2:2 building block (complex, human)
chain 1: GLYFSSLDSSIDILQKRAQELIENINKSRQKDHALMTNFRNSLKTKVSDLTEKLEERIYQIYNDHNKIIQEKLQEFTQKMAKISHLETELKQVCHSVETVYKDLCLQPE
chain 2: KDEALEKDLNDVSKEINLMLSTYAKLLSERAAVDASYIDEIDELFKEANAIENFLIQKREFLRQRFTVIANTLHR
notes: SYCE2, human, core, residues 57-165; TEX12, human, core, residues 49-123; in solution it is found as 4:4 complex and larger assemblies, which are the rows of this molecule with itself; also called core complex; wild-type core; source: E. coli BL21 (DE3), co-expressed, purified (Ni-NTA, amylose, ion exchange, SEC); not shown: MBP, N-terminal, cleaved; His6, N-terminal, cleaved; copies: 2 + 2
binding [8]: binds | binding [9]: binds

Results, then the binder that gave them:

binding [1]: binds
B1: TEX12 core (amino-acids 49-123) (domain or fragment, human, UniProt Q9BXU0 49-123, looked up)
chain: KDEALEKDLNDVSKEINLMLSTYAKLLSERAAVDASYIDEIDELFKEANAIENFLIQKREFLRQRFTVIANTLHR
notes: TEX12, human, core, residues 49-123; also called TEX12 structural core; source: E. coli BL21 (DE3), co-expressed with SYCE2, purified (Ni-NTA, amylose, ion exchange, SEC); not shown: His6, N-terminal, cleaved

binding [6]: no binding (tested: >1 mg/ml)
B4: SYCE2-TEX12 core ΔS2C MBP-fusion 2:2 complex (complex, UniProt Q6PIF2 57-154; Q9BXU0 49-123)
chain 1: GLYFSSLDSSIDILQKRAQELIENINKSRQKDHALMTNFRNSLKTKVSDLTEKLEERIYQIYNDHNKIIQEKLQEFTQKMAKISHLETELKQVCHSVE
chain 2: KDEALEKDLNDVSKEINLMLSTYAKLLSERAAVDASYIDEIDELFKEANAIENFLIQKREFLRQRFTVIANTLHR

binding [7]: no binding (tested: >1 mg/ml)
B5: SYCE2-TEX12 core ΔS2C 2:2 complex (complex, UniProt Q6PIF2 57-154; Q9BXU0 49-123)
chain 1: GLYFSSLDSSIDILQKRAQELIENINKSRQKDHALMTNFRNSLKTKVSDLTEKLEERIYQIYNDHNKIIQEKLQEFTQKMAKISHLETELKQVCHSVE
chain 2: KDEALEKDLNDVSKEINLMLSTYAKLLSERAAVDASYIDEIDELFKEANAIENFLIQKREFLRQRFTVIANTLHR

— publication PMC7612376, “Structural basis of meiotic chromosome synaptic elongation through hierarchical fibrous assembly of SYCE2-TEX12” (Nature structural & molecular biology, 2021)
